Laboratory results: PubChem BioAssay AID1347120 (National Center for Advancing Translational Sciences (NCATS), 2019)
“And” between values parts separate entries of the source, which are not always exact repeats. Equal entries are not always repeated. Screen size: about 390,000 compounds; about 930 (0.24%) were called active. Inconclusive results, whose numbers are uncertain, are shown with a selection of clear calls. The call rests on the fitted dose curve; in most records, active means well fitted activation curve with a large enough effect; inconclusive means small, poorly fitted or top-dose-only effect; inactive means no such curve, though single readings can be large or run the other way. A potency beside an inconclusive call is a rough fit, not a confirmed value.
Potency means the concentration at half of the fitted maximal effect; tags describe the fitted curve by direction and shape.

Assay: qHTS for Suppressors of FUS Proteinopathy: Primary screen using FUS-linked yeast assay; further: nearly all actives have a fitted effect of over 55% in size;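 on growth rescue (activation): plate controls were DMSO vehicle for no effect and reference control for full effect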
Details: S. cerevisiae FUS-expressing, OD600, 24 h; Potency: growth rescue; growth rescue (activation): at 76.6 µM (top of the series)
In short: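 Absorbance at 600 nm, taken 24hr after compound addition, measured rescue of FUS-yeast growth at 30C. Induction used 2% galactose with seeding at OD 0.005. Controls: CP55940 from 92uM final, DMSO only.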
For `CCCCN(CC)C(=O)CSc1nc2n[nH]c(C)c2c(=N)n1-c1cccc(C)c1`, the Potency was inconclusive: 50.1 µM [activator, single point] and inconclusive: 28.2 µM [activator, single point].
In the case of `O=C(NCc1ccc2c(c1)OCO2)NC1CCCCC1`, the Potency is reported as inconclusive: 11.2 µM [activator, partial curve, poor fit].
In the case of `CC(C)C[C@@H](CN1CCCC1CN1C(=S)NC[C@@H]1Cc1ccccc1)N1C[C@H](Cc2ccccc2)N(CC2CCCCCC2)C1=S` (stereo not given in full), the Potency is reported as inconclusive: 20 µM [activator, single point].
With `Cc1cc(N2CCOCC2)nc2ccc(NC(=O)C3CCC(C)CC3)cc12` (stereo not given) the Potency was “inactive”.
For `COc1ccc(S(=O)(=O)c2cnc3cc(OC)c(OC)cc3c2N2CCCC(C)C2)cc1` (stereo not given), the Potency was inconclusive: 50.1 µM [activator, single point].
In the case of `CCOC(=O)C1=C(O)C(=O)N(Cc2ccc(C(C)(C)C)cc2)CC1`, the Potency is reported as inconclusive: 17.8 µM [activator, partial curve, poor fit].
In the case of `Cc1ccc(S(=O)(=O)N(C)c2ccc(OCC(=O)Nc3nnc(C4CC4)s3)cc2)cc1`, the Potency is reported as inconclusive: 15.8 µM [activator, partial curve].
With `COc1cccc(C(NC(C)=O)c2ccc3cccnc3c2O)c1` (stereo not given) the Potency was inconclusive: 31.6 µM [activator, single point].
In the case of `CCc1ccc(NC(=O)Nc2cc(C(=O)O)ccc2N2CC3CC(C2)c2cccc(=O)n2C3)cc1` (stereo not given), the Potency is reported as inconclusive: 39.8 µM [activator, partial curve, poor fit].
In the case of `CC(Oc1ccc(Cl)cc1Cl)C(=O)Nc1cccnc1` (stereo not given), the Potency is reported as inconclusive: 15.8 µM [activator, partial curve, poor fit].
With `COC(=O)c1cc(C(C)c2ccccc2O)n2ccccc12` (stereo not given) the Potency was “inactive”.
With `CCCc1ccc(C(=O)[C@@H]2[C@@H](C(C)=O)N3c4ccc(F)cc4C=C[C@@H]3[C@@]23C(=O)Nc2ccccc23)cc1` the Potency was inconclusive: 50.1 µM [activator, single point].
In the case of `COc1ccccc1NC(=O)CSc1nc(O)c(C/C=C/c2ccccc2)c(=O)[nH]1`, the Potency is reported as inconclusive: 28.2 µM [activator, partial curve].
In the case of `CCOc1cccc2sc(N3CCN(C(=O)c4ccc5c(c4)CCCC5)CC3)nc12`, the Potency is reported as inconclusive: 35.5 µM [activator, single point].
With `CN(Cc1ccccc1)c1nnc(NC(=O)Nc2cccc(Br)c2)s1` the Potency was “inactive”.
For `C[C@H](CO)N1C[C@H](C)[C@H](CN(C)C(=O)c2ccccn2)Oc2cc(C#Cc3ccc(F)cc3)ccc2S1(=O)=O`, the Potency was inconclusive: 17.8 µM [activator, partial curve, poor fit].
For `CC1(C)C(=O)Nc2ccccc2N1C(=O)COC(=O)COc1ccc(C#N)cc1`, the Potency was inconclusive: 7.08 µM [activator, partial curve].
For `CC1CC(C)CN(C(=O)COC(=O)c2ccc(S(=O)(=O)N(C)c3ccccc3)cc2)C1` (stereo not given), the Potency was inconclusive: 28.2 µM [activator, single point].
With `Cc1nn(Cc2ccccc2)c(Cl)c1C(=O)NCc1ccc(C)n1C` the Potency was inconclusive: 22.4 µM [activator, partial curve, poor fit].
For `O=C(Nc1ccccc1Cl)c1cc(S(=O)(=O)N2CCCCC2)ccc1N1CCOCC1`, the Potency was inconclusive: 39.8 µM [activator, partial curve, poor fit].
In the case of `COc1cc2[nH]c(=O)n(CCCCCC(=O)N3CC=C(c4ccccc4)CC3)c(=O)c2cc1OC`, the Potency is reported as “inactive”.
For `CNC(=S)N/N=C/c1c(C(=O)OC)cnn1-c1ccc(Cl)cc1`, the Potency was “inactive”.
In the case of `CC(C)C(NS(=O)(=O)c1ccc2c(c1)oc(=O)n2C)C(=O)N1CCN(c2cccc(Cl)c2)CC1` (stereo not given), the Potency is reported as inconclusive: 35.5 µM [activator, partial curve, poor fit].
For `CCN(CC)C(=O)c1ccc2c(c1)N(Cc1c(F)cccc1Cl)C(=O)c1ccccc1S2`, the Potency was inconclusive: 25.1 µM [activator, partial curve].
In the case of `O=C(c1ccc(NS(=O)(=O)c2ccc(F)cc2)cc1)N1CCN(c2ccccc2O)CC1`, the Potency is reported as inconclusive: 50.1 µM [activator, single point].
In the case of `CCOc1ccc(NC(=O)CC2C(=O)N(c3ccccc3)C(=O)N2CCc2cccs2)cc1` (stereo not given), the Potency is reported as inconclusive: 31.6 µM [activator, single point].
In the case of `CCN(CC)C(=O)c1sc2c(c1C)c(=O)n(-c1ccccc1)c(=O)n2Cc1c(C)cc(C)cc1C`, the Potency is reported as “inactive”.
With `O=C(O)CC/C(=N\Nc1ccc(S(=O)(=O)N2CCOCC2)cc1[N+](=O)[O-])c1cccs1` the Potency was inconclusive: 31.6 µM [activator, partial curve, poor fit].
In the case of `COc1ccc(OC)c(N(CC(=O)N2CCN(c3cc(Cl)ccc3C)CC2)S(C)(=O)=O)c1`, the Potency is reported as active: 28.2 µM.
In the case of `Cc1ccc(N(CC(=O)N2CCN(c3cccc(Cl)c3)CC2)S(=O)(=O)c2c(C)noc2C)cc1`, the Potency is reported as inconclusive: 7.08 µM [activator, partial curve].
With `Cn1c(=N)n(CC(=O)C(C)(C)C)c2ccccc21` the Potency was inconclusive: 11.2 µM [activator, partial curve, poor fit].
In the case of `COCC1CCN(C(=O)c2ccc3nc(Cc4cccc(Cl)c4)oc3c2)CC1`, the Potency is reported as inconclusive: 15.8 µM [activator, partial curve].
In the case of `Cc1sc(NC(=O)c2ccco2)c(C(c2cccnc2)N2CCN(c3ccc(F)cc3)CC2)c1C` (stereo not given), the Potency is reported as inconclusive: 44.7 µM [activator, single point].
For `CCOC(=O)N1CCN(C(=O)C[C@H]2C[C@@]3(C(=O)OC)C(=C[C@H](C(C)C)O[C@@H]3C3CC3)N(Cc3cccc4ccccc34)C2=O)CC1`, the Potency was inconclusive: 10 µM [activator, partial curve, poor fit].
For `CC(C)(C)n1nnnc1C(c1ccccc1)N1CCN(c2ccc(C(F)(F)F)cn2)CC1` (stereo not given), the Potency was “inactive”.
In the case of `COc1cccc(C2=CC(c3ccccc3F)n3ncc(C(=O)Nc4ccc(C)cc4)c3N2)c1` (stereo not given), the Potency is reported as inconclusive: 22.4 µM [activator, single point].
With `O=C(Nc1cccc(C(=O)O)c1)/C(=C\c1ccccc1)NC(=O)c1ccccc1Cl` the Potency was “inactive”.
In the case of `CCC(=O)Nc1ccc(CC)cc1-c1nc2ccccc2n(CC(=O)Nc2cccc(OC)c2)c1=O`, the Potency is reported as “inactive”.
With `COc1cccc(-c2nn(C)c3sc(C(=O)Nc4ccc5c(c4)OCCO5)cc23)c1` the Potency was “inactive”.
For `c1ccc(-n2ncc3c(N4CCCCC4)ncnc32)cc1`, the Potency was “inactive”.
In the case of `Cn1c(COc2cccc3ccccc23)nnc1SCC(=O)OC1CCCCC1`, the Potency is reported as inconclusive: 22.4 µM [activator, single point].
For `COc1cc(NC(=O)c2nc3ccccc3nc2N2CCCCC2)cc(OC)c1OC`, the Potency was inconclusive: 25.1 µM [activator, single point].
With `Cc1cc(C)c(S(=O)(=O)N2CCN(C(=O)c3ccc(-n4nc(C)c(Cl)c4C)cc3)CC2)c(C)c1` the Potency was active: 15.8 µM.
For `CSc1ccc(CN(C)C(=O)C(c2ccccc2)c2ccccc2)cc1`, the Potency was inconclusive: 35.5 µM [activator, single point].
For `Cc1cccc(-c2nc(CSCC(=O)NCCc3ccc(Cl)cc3)c(C)o2)c1`, the Potency was inconclusive: 50.1 µM [activator, single point].
For `Cc1ccc(CNC(=O)c2ccc(-c3nc(CS(=O)c4ccccc4)c(C)o3)cc2)cc1` (stereo not given), the Potency was “inactive”.
For `CC(CCC(=O)O)(c1ccc(O)cc1)c1ccc(O)cc1`, the Potency was inconclusive: 22.4 µM [activator, single point].
With `CC(=O)c1ccc(OC(=O)c2ccc(Br)o2)cc1` the growth rescue (activation) was inconclusive: 59.7% [activator].
In the case of `Cc1cc(=O)n(Cc2cccc(F)c2)c2c1c(C)nn2-c1cccc(F)c1`, the Potency is reported as “inactive”.
In the case of `CCOC(=O)[C@]12CCC=C1N(Cc1ccccc1)C(=O)[C@H](CC(=O)NCc1cccc(C(F)(F)F)c1)C2`, the Potency is reported as inconclusive: 35.5 µM [activator, single point].
In the case of `Cc1cccc(NC(=O)c2cc(S(=O)(=O)N3CCN(c4ccccc4F)CC3)ccc2F)c1C`, the Potency is reported as inconclusive: 3.16 µM [activator, full curve].
With `CCOC(=O)N1CCN(C(=O)CN(c2ccc(Cl)c(C(F)(F)F)c2)S(C)(=O)=O)CC1` the Potency was inconclusive: 50.1 µM [activator, single point].
In the case of `Brc1ccc(-c2nn3c(-c4ccccc4)nnc3s2)cc1`, the Potency is reported as “inactive”.
With `Cn1nc(C(=O)NCc2ccc(F)cc2)c2c1-c1ccccc1S(=O)(=O)C2` the Potency was inconclusive: 4.47 µM [activator, full curve].
In the case of `COc1ccc(-n2c(CN3CCN(c4ccccc4OC)CC3)nc3ccc([N+](=O)[O-])cc3c2=O)c(OC)c1`, the Potency is reported as inconclusive: 35.5 µM [activator, partial curve, poor fit].
In the case of `O=C(CSc1nnnn1-c1ccc(Cl)cc1)N1CCc2ccccc2C1`, the Potency is reported as inconclusive: 31.6 µM [activator, partial curve, poor fit].
With `Cc1ccc(C(=O)/C=C/c2ccc(-c3ccc(C)cc3)o2)cc1` the Potency was active: 14.1 µM.
In the case of `Cc1c(Cl)cccc1-n1ncc(C(=O)NCc2cccs2)c1C1CCN(C(=O)OC(C)(C)C)CC1`, the Potency is reported as inconclusive: 20 µM [activator, partial curve, poor fit].
For `CCOC(=O)[C@]12CCCC=C1N(Cc1ccccc1)C(=O)[C@H](CC(=O)NCCCCc1ccccc1)C2`, the Potency was inconclusive: 20 µM [activator, single point].
With `CCn1cc(C(=O)NCCc2ccc(OC)c(OC)c2)c(=O)c2cc(S(=O)(=O)N3CCC(C)CC3)ccc21` the Potency was inconclusive: 20 µM [activator, partial curve, poor fit].
